These are yes or no findings as the source states them, for the method shown. For some of these results: In cells and extracts the contact can be indirect. Some entries that bind do so weakly or less than the wild type.
What was measured:
[1] = target: FLAG-tagged nectin-4 (FLAG-Nectin-4) (UniProt Q96NY8); assay: co-IP; HEK293E cells co-transfected, detached with Accutase, cultured 1 h in suspension, lysed; FLAG-tagged nectin-4 construct immunoprecipitated with anti-FLAG mAb; Western blotting
[2] = target: GFP-tagged ErbB2 (ErbB2-GFP) (UniProt P04626); assay: pull-down; ErbB2-GFP captured from HEK293E lysate on anti-GFP pAb-conjugated beads and washed; incubated with 5 uM rec-FLAG-Nectin-4-Ig1/2/3 with or without 25 uM rec-FLAG-Nectin-4-Ig3 in lysis buffer, 20 ul, 4 °C, 16 h; washed with PBS, 0.02% Tween-20; Western blotting; both purified
[3] = target: GFP-tagged ErbB2 (ErbB2-GFP) (UniProt P04626); assay: co-IP; HEK293E cells co-transfected, detached with Accutase, cultured 1 h in suspension, lysed; GFP-tagged ErbB2 construct immunoprecipitated with anti-GFP pAb; Western blotting
[4] = target: endogenous nectin-4 (human (endogenous in SUM190-PT)) (UniProt Q96NY8); assay: co-IP; SUM190-PT cells detached with Accutase, cultured 1 h in suspension, lysed; endogenous nectin-4 immunoprecipitated with anti-nectin-4 pAb; Western blotting

Sequences of proteins named here, by UniProt entry; tags and fusion partners are left off. A change or cut given only in a name is not applied to a line headed by its entry. Residues count along the entry.
UniProt Q96NY8: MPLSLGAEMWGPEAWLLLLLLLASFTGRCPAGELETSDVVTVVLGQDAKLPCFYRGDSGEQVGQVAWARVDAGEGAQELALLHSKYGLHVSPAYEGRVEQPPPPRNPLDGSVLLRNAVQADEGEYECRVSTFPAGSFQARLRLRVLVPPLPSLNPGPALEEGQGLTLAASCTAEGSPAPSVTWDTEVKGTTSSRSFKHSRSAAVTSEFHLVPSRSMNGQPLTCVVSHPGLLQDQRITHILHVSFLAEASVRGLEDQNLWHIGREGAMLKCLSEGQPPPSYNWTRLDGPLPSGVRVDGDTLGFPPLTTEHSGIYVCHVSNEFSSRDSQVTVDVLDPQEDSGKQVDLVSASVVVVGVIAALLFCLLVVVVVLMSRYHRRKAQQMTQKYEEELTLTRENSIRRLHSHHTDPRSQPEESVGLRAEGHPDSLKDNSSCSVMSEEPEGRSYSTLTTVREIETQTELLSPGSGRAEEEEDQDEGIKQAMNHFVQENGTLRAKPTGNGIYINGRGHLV
endogenous nectin-4 (human (endogenous in SUM190-PT)): residues 32-510 of Q96NY8
UniProt Q15303, residues 26-1308: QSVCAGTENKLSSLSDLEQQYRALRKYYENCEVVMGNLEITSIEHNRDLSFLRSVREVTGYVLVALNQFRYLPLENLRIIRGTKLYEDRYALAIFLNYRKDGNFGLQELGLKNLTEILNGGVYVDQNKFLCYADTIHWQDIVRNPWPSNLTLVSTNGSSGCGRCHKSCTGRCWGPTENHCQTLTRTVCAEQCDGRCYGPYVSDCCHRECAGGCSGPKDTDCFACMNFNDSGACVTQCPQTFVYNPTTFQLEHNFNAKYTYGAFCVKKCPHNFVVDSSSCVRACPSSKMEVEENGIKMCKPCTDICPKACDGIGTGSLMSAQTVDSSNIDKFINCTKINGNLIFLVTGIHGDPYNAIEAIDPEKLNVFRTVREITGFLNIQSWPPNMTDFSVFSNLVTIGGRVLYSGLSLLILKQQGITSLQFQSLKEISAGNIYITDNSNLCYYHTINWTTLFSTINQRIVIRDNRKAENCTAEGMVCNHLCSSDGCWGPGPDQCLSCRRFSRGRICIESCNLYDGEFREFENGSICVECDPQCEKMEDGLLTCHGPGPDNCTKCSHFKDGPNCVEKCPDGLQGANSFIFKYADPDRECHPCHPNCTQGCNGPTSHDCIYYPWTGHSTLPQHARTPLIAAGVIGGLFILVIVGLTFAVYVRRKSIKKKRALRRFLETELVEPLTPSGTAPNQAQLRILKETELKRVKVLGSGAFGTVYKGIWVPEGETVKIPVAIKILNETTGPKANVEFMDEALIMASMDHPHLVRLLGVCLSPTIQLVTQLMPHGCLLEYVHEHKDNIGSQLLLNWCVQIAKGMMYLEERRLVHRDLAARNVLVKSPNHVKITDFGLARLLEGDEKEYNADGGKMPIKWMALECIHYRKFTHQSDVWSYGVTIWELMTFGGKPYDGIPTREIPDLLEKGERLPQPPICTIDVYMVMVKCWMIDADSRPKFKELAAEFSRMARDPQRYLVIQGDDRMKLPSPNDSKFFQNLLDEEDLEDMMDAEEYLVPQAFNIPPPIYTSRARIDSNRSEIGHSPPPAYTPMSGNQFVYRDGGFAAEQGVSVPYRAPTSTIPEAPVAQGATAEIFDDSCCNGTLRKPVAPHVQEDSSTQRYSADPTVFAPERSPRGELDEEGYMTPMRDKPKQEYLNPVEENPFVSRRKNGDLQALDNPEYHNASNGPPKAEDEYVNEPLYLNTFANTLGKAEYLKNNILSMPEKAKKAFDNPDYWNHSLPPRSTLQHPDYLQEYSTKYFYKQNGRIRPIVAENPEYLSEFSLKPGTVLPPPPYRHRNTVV
UniProt P21860, residues 20-1342: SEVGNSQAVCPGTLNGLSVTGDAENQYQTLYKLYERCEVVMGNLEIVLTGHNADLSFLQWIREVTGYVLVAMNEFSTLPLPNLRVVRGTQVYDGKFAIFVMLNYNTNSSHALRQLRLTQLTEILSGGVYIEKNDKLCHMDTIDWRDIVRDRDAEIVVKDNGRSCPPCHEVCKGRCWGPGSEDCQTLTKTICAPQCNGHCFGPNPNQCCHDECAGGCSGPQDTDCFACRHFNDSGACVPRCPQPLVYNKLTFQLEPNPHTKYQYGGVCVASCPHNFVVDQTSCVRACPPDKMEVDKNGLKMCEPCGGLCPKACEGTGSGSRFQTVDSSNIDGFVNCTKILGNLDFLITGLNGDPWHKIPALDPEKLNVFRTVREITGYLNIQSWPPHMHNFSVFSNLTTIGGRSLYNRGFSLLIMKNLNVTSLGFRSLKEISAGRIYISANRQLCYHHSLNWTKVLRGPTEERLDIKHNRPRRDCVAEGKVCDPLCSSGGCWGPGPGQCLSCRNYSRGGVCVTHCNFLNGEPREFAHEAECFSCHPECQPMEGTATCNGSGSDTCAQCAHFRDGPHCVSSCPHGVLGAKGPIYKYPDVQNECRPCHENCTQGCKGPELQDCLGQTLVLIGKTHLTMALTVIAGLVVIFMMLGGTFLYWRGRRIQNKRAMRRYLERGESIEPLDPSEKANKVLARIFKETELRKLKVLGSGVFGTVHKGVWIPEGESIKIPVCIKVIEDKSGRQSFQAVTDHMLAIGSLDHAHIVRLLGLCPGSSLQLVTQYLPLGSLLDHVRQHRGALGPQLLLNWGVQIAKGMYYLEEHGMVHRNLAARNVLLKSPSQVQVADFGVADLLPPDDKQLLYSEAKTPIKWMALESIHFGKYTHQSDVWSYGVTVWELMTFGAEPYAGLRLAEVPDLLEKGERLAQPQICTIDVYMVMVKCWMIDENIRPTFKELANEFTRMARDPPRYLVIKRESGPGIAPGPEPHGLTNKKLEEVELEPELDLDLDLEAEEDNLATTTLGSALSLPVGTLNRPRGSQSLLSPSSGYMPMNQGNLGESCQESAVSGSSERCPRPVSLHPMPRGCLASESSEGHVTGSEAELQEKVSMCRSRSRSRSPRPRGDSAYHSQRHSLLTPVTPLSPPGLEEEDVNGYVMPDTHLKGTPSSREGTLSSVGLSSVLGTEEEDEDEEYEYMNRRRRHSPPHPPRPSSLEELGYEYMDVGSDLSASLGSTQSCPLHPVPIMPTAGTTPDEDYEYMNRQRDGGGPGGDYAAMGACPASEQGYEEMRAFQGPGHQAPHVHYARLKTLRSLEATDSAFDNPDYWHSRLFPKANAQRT

Substance	binding [1]	other results
ErbB1-GFP (from UniProt P00533 25-1210) (receptor)	no binding	
Recombinant FLAG-tagged extracellular region of nectin-4 (rec-FLAG-Nectin-4-Ig1/2/3) (from UniProt Q96NY8 32-349) (domain or fragment)		binding [2]: binds
GFP-tagged ErbB2 (ErbB2-GFP) (from UniProt P04626 23-1255) (receptor)	binds	
FLAG-tagged nectin-4 (FLAG-Nectin-4) (from UniProt Q96NY8 32-510)		binding [3]: binds
endogenous ErbB2 (from UniProt P04626 23-1255) (receptor)		binding [4]: binds

Further lines, with some results ahead:

binding [1]	Substance	other results
no binding	ErbB4-GFP (from UniProt Q15303 26-1308) (receptor)	
no binding	ErbB3-GFP (from UniProt P21860 20-1342) (receptor)	

Source: publication PMC6908695
